Results on 39 molecules are retold here after the supplement of paper PMC9446081.

The whole screen tested about 39,000 compounds, of which about 220 (0.56%) showed activity. The list shows a part of the results.
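Note: static incubation at 37 °C against the wild-type strain, values averaged over two biological replicates.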

This assay has as its system Escherichia coli K-12 BW25113. The experiment in a line: relative growth (OD600 normalised to plate interquartile mean) (fraction); higher = less growth inhibition, active = 0.2 or less. The conditions noted are these: 50 µM; LB; incubation time: overnight (16-24 h).
As for `COc1ccc2c(c1OCc1ccccc1)C[C@@H](C(=O)O)N(C(=O)C(c1ccccc1)c1ccccc1)C2`, the relative growth was inactive: 1.02. Consider `COc1cccc(-c2cc(=O)c3cc(OC)ccc3o2)c1`, for which the relative growth was inactive: 0.878. As for `NCc1cccc(-c2nccs2)c1`, the relative growth was inactive: 0.994.

With `COCC#Cc1ccc2c(c1)O[C@@H](CN(C)C(=O)c1ccccc1)[C@@H](C)CN([C@H](C)CO)S2(=O)=O`, the relative growth was inactive: 1.01. For `CCOC(=O)N1c2ccc(C(F)(F)F)cc2[C@@H](N(Cc2cc(C(F)(F)F)cc(C(F)(F)F)c2)C(=O)OC)C[C@H]1CC`, the relative growth was inactive: 1.01. For the molecule `C[C@@H]1CN([C@@H](C)CO)S(=O)(=O)c2ccc(C#CC3(O)CCCC3)cc2O[C@H]1CN(C)C(=O)Nc1ccc(F)cc1`, the relative growth is inactive: 1. As for `CO[C@H]1CN(C)C(=O)c2ccc(NC(=O)NC(C)C)cc2OC[C@@H](C)N(Cc2ccc(-c3ccccn3)cc2)C[C@H]1C`, the relative growth is inactive: 0.994. As for `CO[C@@H]1[C@@H](O[C@@H]2O[C@H](C)[C@@H](O[C@H]3C[C@@](C)(O)[C@@H](O)[C@H](C)O3)[C@H](N(C)C)[C@H]2O)[C@@H](CC=O)C[C@@H](C)[C@@H](O[C@H]2CC[C@H](N(C)C)[C@@H](C)O2)/C=C/C=C/CC(C)OC(=O)C[C@H]1OC(C)=O` (some centres undefined), the relative growth is inactive: 0.972. `CC(C)CC#Cc1cnc2c(c1)C(=O)N([C@H](C)CO)C[C@@H](C)[C@@H](CN(C)C(=O)c1ccc3c(c1)OCO3)O2`: the relative growth was inactive: 0.986. For `CO[C@H](CN(C)S(=O)(=O)c1cn(C)cn1)[C@H](C)CN(C(=O)Nc1ccc(C(F)(F)F)cc1)[C@H](C)CO`, the relative growth was inactive: 0.877. Consider `C=CCOC(=O)[C@H]1[C@@H]2C(=O)O[C@@H](c3ccccc3)[C@@H](c3ccccc3)N2[C@@H](c2ccc(OCCOC(=O)[C@H]3C[C@H]4C(=O)N[C@@H](CCCC[N+](C)(C)C)C(=O)N4[C@H]3c3cccc(OCCO)c3)cc2)[C@]12C(=O)Nc1ccccc12`, for which the relative growth was inactive: 1.01. Take `CCC1OC(=O)C(C)C(OC2CC(C)(OC)C(O)C(C)O2)C(C)C(OC2OC(C)CC(N(C)C)C2O)C(C)(O)CC(C)CN(C)C(C)C(O)C1(C)O` (centres undefined): the relative growth is active: 0.0435. Consider `CCNC(=O)C[C@@H]1CC[C@@H](NC(=O)C2CC2)[C@@H](CO)O1`, for which the relative growth is inactive: 0.969. With `C[C@@H]1CN([C@@H](C)CO)S(=O)(=O)c2ccc(C#Cc3ccccc3)cc2O[C@@H]1CN(C)S(=O)(=O)c1ccccc1F`, the relative growth was inactive: 1. `C[C@H]1CN([C@@H](C)CO)C(=O)c2cc(NC(=O)Cc3ccccc3)ccc2O[C@@H]1CN(C)Cc1ccc(Oc2ccccc2)cc1`: the relative growth was inactive: 0.998. `Nc1ccccc1S(N)(=O)=O`: the relative growth is inactive: 1.01. As for `Cc1noc(C)c1NC(=O)N(C)C[C@H]1Oc2c(NC(=O)c3cnccn3)cccc2C(=O)N([C@H](C)CO)C[C@H]1C`, the relative growth is inactive: 0.98. As to `COc1ccc(NC(=O)Nc2ccc3c(c2)C(=O)N([C@H](C)CO)C[C@H](C)[C@H](CN(C)S(=O)(=O)c2ccc(F)cc2)OCCCC[C@H](C)O3)cc1`, the relative growth is inactive: 0.996. For `C[C@@H]1CN([C@H](C)CO)C(=O)c2cc(NS(=O)(=O)c3cn(C)cn3)ccc2O[C@H]1CN(C)Cc1ccccc1`, the relative growth is inactive: 0.988.

Regarding `C[C@H]1CN([C@@H](C)CO)C(=O)Cc2cc(NC(=O)Nc3ccc4c(c3)OCO4)ccc2O[C@@H]1CN(C)Cc1ccc(C(F)(F)F)cc1`, the relative growth is inactive: 1.03. On to `C[C@H](CO)N1C[C@H](C)[C@H](CN(C)S(=O)(=O)c2cn(C)cn2)Oc2ccc(NC(=O)CCCCCC(=O)Nc3ccccc3N)cc2C1=O`, for which the relative growth is inactive: 1.

As to `COCC(=O)Nc1ccc2c(c1)OC[C@H](C)N(C(=O)Cc1cccnc1)C[C@H](C)[C@@H](OC)CN(C)C2=O`, the relative growth is inactive: 1.05. For the molecule `CNC[C@H](O)c1cccc(O)c1`, the relative growth is inactive: 1.02. As to `C[C@@H](Oc1ccccc1)c1ccn[nH]1`, the relative growth was inactive: 1.03.

For `Cc1nnc(NCc2ccccc2)n(N)c1=O`, the relative growth was inactive: 0.975.

As to `O=C(C[C@@H]1CC[C@H]2[C@@H](COC[C@H](O)CN2S(=O)(=O)c2ccccc2)O1)N[C@@H]1CCN(Cc2ccccc2)C1`, the relative growth was inactive: 0.849. On to `O=C(C[C@@H]1CC[C@@H]2[C@H](COC[C@H](O)CN2S(=O)(=O)c2cccc(Cl)c2)O1)NCCCN1CCOCC1`, for which the relative growth was inactive: 0.966. Regarding `C[C@H](CO)N1C[C@H](C)[C@H](CN(C)C)Oc2ccc(NS(=O)(=O)c3ccc(Cl)cc3)cc2CC1=O`, the relative growth is inactive: 0.999. For the molecule `C[C@@H]1CN([C@H](C)CO)C(=O)c2cc(NC(=O)Cc3ccccc3)ccc2O[C@@H](C)CCCCO[C@H]1CN(C)S(=O)(=O)c1ccc(F)cc1`, the relative growth was inactive: 0.998. In the case of `CC(C)NC(=O)Nc1cccc2c1O[C@H](CN(C)S(=O)(=O)c1ccccc1)[C@@H](C)CN([C@H](C)CO)C2=O`, the relative growth is inactive: 0.986. Regarding `NC[C@@H]1CCCO1`, the relative growth is inactive: 1.03. Regarding `CC(=O)OCC(=O)C1(O)C(OC(C)=O)CC2C3CCC4=CC(=O)C=CC4(C)C3(F)C(O)CC21C` (centres undefined), the relative growth was inactive: 0.942. In the case of `COC(=O)C1(N2CC3=C[C@@H]([C@@H](O)Cc4ccccc4)n4c(=O)n(C)c(=O)n4[C@@H]3[C@@H](C3CC3)O2)CCCC1`, the relative growth was inactive: 0.999. On to `CN(C)Cc1cn(CC[C@H]2CC[C@H](N)[C@@H](CO)O2)nn1`, for which the relative growth is inactive: 0.921. As for `COCC(=O)Nc1ccc2c(c1)C(=O)N(C)[C@H]1CC[C@H](CC(=O)NCc3ccccc3Cl)O[C@H]1CO2`, the relative growth was inactive: 1.01. `C[C@@H]1CN([C@H](C)CO)C(=O)c2cc(NC(=O)Cc3ccccc3)ccc2O[C@@H](C)CCCCO[C@H]1CN(C)C(=O)c1ccccc1`: the relative growth was inactive: 0.994. Take `CN(C)CCCNC(=O)C[C@H]1CC[C@H]2[C@H](COc3ccc(NC(=O)c4cccc(F)c4)cc3C(=O)N2C)O1`: the relative growth is inactive: 1. Consider `Cc1noc(C)c1NC(=O)Nc1ccc2c(c1)C(=O)N([C@H](C)CO)C[C@@H](C)[C@H](CN(C)C(=O)Nc1ccc(C(F)(F)F)cc1)O2`, for which the relative growth is inactive: 0.981.

As for `C[C@H](CO)N1C[C@H](C)[C@@H](CN(C)Cc2ccncc2)Oc2c(NC(=O)Cn3cnnn3)cccc2C1=O`, the relative growth was inactive: 1.02.
